Laboratory results reported in the supplement of paper PMC12217912.
This is one part of the list. The full chains were built here from the parent and the listed change. Values near 0.05 are background.

B1: TEV protease; numbered along this chain (parent)
chain: MGESLFKGPRDYNPISSSICHLTNESDGHTTSLYGIGFGPFIITNKHLFRRNNGTLVVQSLHGVFKVKDTTTLQQHLVDGRDMIIIRMPKDFPPFPQKLKFREPQREERICLVTTNFQTKSMSSMVSDTSCTFPSGDGIFWKHWIQTKDGQCGSPLVSTRDGFIVGIHSASNFTNTNNYFTSVPKNFMELLTNQEAQQWVSGWRLNADSVLWGGHKVFMVKPEEPFQPVKEATQL

Variants of: B1
Assay: raw area under fraction-flipped curve 0-4 h after induction (AUC4h, not background-subtracted), DNA-recorder readout of cleavage of the substrate (dimensionless); higher = more cleavage of the substrate by the protease variant
Details: temperature: 34 °C; time window: 0-4 h after rhamnose induction
Description: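 In vivo DNA recorder in E. coli TOP10(DE3) ΔrhaA at 34 °C. Each TEVp single-site mutant (parent TEVp 0) is paired with a single-site variant of the 7-mer TEVs (canonical ENLYFQ|S). The substrate sits between flexible linkers in a Bxb1-sfGFP-TEVs-SsrA fusion, so cleavage stabilises Bxb1 and speeds flipping of a recombination array, read by NGS. The value is the raw area under the fraction-flipped curve over 0-4 h after rhamnose induction (AUC4h), with ≥20 reads per time point. It is not background-subtracted; inactive controls average about 0.047.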
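Also: Bxb1 expression induced with 0.2% (w/v) L-rhamnose at OD600 near 0.5, cultures sampled hourly, flipped fraction per protease–substrate barcode pair counted by paired-end Illumina sequencing.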

Row | Variant | area with substrate ENLYFQA | area with substrate ENLYFQC | area with substrate ENLYFQD | area with substrate ENLYFQG | area with substrate ENLYFQH | area with substrate ENLYFQI | area with substrate ENLYFQK | area with substrate ENLYFQL | area with substrate ENLYFQM | area with substrate ENLYFQN | area with substrate ENLYFQR | area with substrate ENLYFQS | area with substrate ENLYFQV | area with substrate ENLYFQW | area with substrate ENLYFQE | area with substrate ENLYFQF | area with substrate ENLYFQT | area with substrate ENLYFQY | area with substrate ENLYFQP | area with substrate ENLYFQQ
1 | S32L | 0.0879 | 0.105 | 0.0664 | 0.0843 | 0.0677 | 0.0461 | 0.0579 | 0.0622 | 0.0635 | 0.0827 | 0.0702 | 0.0995 | 0.0516 | 0.0673 |  |  |  |  |  | 
2 | S32G | 0.0973 | 0.106 |  | 0.102 | 0.0762 |  | 0.0601 | 0.0682 | 0.0848 | 0.083 | 0.0671 | 0.0954 | 0.0608 | 0.063 | 0.058 | 0.0783 | 0.0681 | 0.0708 |  | 
3 | S32M | 0.0943 | 0.108 |  |  |  | 0.0674 | 0.0618 | 0.068 |  |  | 0.0879 | 0.114 | 0.0557 | 0.0786 |  |  | 0.0596 | 0.101 |  | 
4 | S32Q | 0.109 | 0.118 | 0.0632 | 0.106 | 0.0903 | 0.0597 | 0.0642 | 0.0698 | 0.0875 |  |  | 0.1 | 0.0597 | 0.0674 |  |  | 0.07 | 0.0797 | 0.0595 | 
5 | S32W | 0.0995 | 0.128 | 0.0654 | 0.0987 |  | 0.0561 |  | 0.0652 | 0.101 | 0.0862 | 0.0673 | 0.104 |  |  |  |  | 0.0716 | 0.0828 | 0.0496 | 
6 | S32D | 0.0839 | 0.0926 |  |  | 0.0712 |  | 0.0425 | 0.0605 | 0.0819 | 0.0765 | 0.0558 | 0.0865 | 0.0844 | 0.0569 | 0.0642 | 0.064 | 0.0747 | 0.0279 |  | 0.0677
7 | S32Y | 0.0879 | 0.0982 | 0.0723 | 0.106 | 0.0812 |  | 0.0632 | 0.0542 | 0.094 | 0.0896 | 0.0494 | 0.0974 |  | 0.056 | 0.0575 | 0.0714 | 0.0576 |  | 0.055 | 
8 | S32A | 0.116 | 0.102 | 0.0625 | 0.0821 | 0.0702 | 0.0642 | 0.0565 | 0.0643 | 0.0671 | 0.0821 | 0.0586 | 0.105 | 0.059 | 0.0749 | 0.0655 |  | 0.0653 | 0.0626 | 0.0824 | 
9 | S32E | 0.094 | 0.0876 |  | 0.077 | 0.0854 | 0.0578 | 0.0569 | 0.0603 | 0.0952 | 0.075 | 0.0611 | 0.0943 | 0.0717 | 0.063 |  |  | 0.0627 | 0.0692 | 0.0585 | 0.0686
10 | S32P | 0.0569 | 0.0732 | 0.0524 |  | 0.0528 |  | 0.0599 | 0.0498 | 0.0587 | 0.0535 | 0.0461 | 0.0623 | 0.0599 | 0.0573 |  | 0.0396 | 0.0506 | 0.053 | 0.0483 | 0.0405
11 | S32R | 0.0823 | 0.116 | 0.0769 | 0.113 | 0.0644 | 0.0546 | 0.0591 |  | 0.0763 | 0.0813 | 0.032 | 0.101 |  | 0.0416 | 0.0451 | 0.0796 | 0.057 | 0.0738 |  | 0.0705
12 | G39A | 0.046 | 0.0542 | 0.0368 | 0.0572 |  | 0.0308 | 0.0506 | 0.0455 | 0.038 |  | 0.058 | 0.0492 | 0.0369 | 0.0268 |  | 0.0303 | 0.0415 |  |  | 0.0225
13 | N52W | 0.0636 | 0.071 | 0.0582 | 0.0747 | 0.0691 | 0.0448 | 0.0597 | 0.0609 | 0.0482 | 0.0697 | 0.056 | 0.0707 | 0.0492 | 0.0625 |  | 0.0607 | 0.0655 | 0.0529 | 0.0563 | 0.0597
14 | D27P | 0.0854 | 0.108 | 0.0599 | 0.0872 | 0.0677 | 0.0618 |  |  |  | 0.0847 | 0.0629 | 0.0831 | 0.0632 | 0.0681 |  |  | 0.0696 |  |  | 
15 | E25K | 0.0916 | 0.0755 | 0.0752 | 0.109 |  | 0.0571 |  | 0.0576 | 0.0871 | 0.0764 | 0.0682 | 0.0976 | 0.0538 | 0.0596 |  | 0.0752 | 0.0615 | 0.0745 | 0.0409 | 
16 | G28T | 0.101 |  |  | 0.0804 |  | 0.0538 | 0.0574 | 0.0611 | 0.0687 | 0.0846 | 0.0548 | 0.0877 | 0.0658 | 0.0613 |  |  | 0.0777 | 0.0842 | 0.043 | 0.0665
17 | G28L | 0.0564 | 0.0766 | 0.0557 | 0.127 |  | 0.0593 | 0.0569 | 0.0589 | 0.0779 | 0.0725 | 0.0557 | 0.0853 |  | 0.0635 | 0.073 | 0.0703 | 0.0604 | 0.0813 | 0.0527 | 
18 | L33N | 0.106 | 0.0996 |  | 0.0916 | 0.0678 | 0.0719 | 0.0444 | 0.0565 | 0.0812 | 0.0722 | 0.0691 | 0.104 | 0.0652 | 0.0732 | 0.0747 | 0.0081 | 0.0836 | 0.059 | 0.0609 | 
19 | T30S | 0.0969 | 0.132 | 0.0745 | 0.102 | 0.0825 | 0.0624 | 0.0595 | 0.0721 | 0.0956 | 0.0787 | 0.0657 | 0.107 | 0.0565 | 0.0744 | 0.0556 |  | 0.0635 | 0.0774 |  | 
20 | T30C | 0.103 | 0.119 | 0.0776 | 0.0887 | 0.0825 | 0.0629 | 0.0633 | 0.056 | 0.0753 | 0.0805 | 0.0587 | 0.102 |  | 0.0639 |  | 0.0889 | 0.0784 | 0.126 | 0.0522 | 0.0845
21 | I43R | 0.047 | 0.0593 | 0.0458 | 0.109 | 0.0521 | 0.0384 | 0.0329 | 0.0423 |  | 0.0383 | 0.0478 | 0.0471 | 0.0505 | 0.0393 |  |  |  | 0.0514 | 0.0416 | 
22 | I43K | 0.0564 | 0.0531 | 0.027 | 0.0542 |  | 0.062 | 0.0495 | 0.0394 | 0.0526 | 0.0387 | 0.0457 | 0.048 |  | 0.0554 |  | 0.0587 | 0.06 | 0.0536 | 0.0389 | 0.0449
